This assay addresses T1, human M2 receptor (Homo sapiens, UniProt P08172).
T1 sequence (P08172 1-466): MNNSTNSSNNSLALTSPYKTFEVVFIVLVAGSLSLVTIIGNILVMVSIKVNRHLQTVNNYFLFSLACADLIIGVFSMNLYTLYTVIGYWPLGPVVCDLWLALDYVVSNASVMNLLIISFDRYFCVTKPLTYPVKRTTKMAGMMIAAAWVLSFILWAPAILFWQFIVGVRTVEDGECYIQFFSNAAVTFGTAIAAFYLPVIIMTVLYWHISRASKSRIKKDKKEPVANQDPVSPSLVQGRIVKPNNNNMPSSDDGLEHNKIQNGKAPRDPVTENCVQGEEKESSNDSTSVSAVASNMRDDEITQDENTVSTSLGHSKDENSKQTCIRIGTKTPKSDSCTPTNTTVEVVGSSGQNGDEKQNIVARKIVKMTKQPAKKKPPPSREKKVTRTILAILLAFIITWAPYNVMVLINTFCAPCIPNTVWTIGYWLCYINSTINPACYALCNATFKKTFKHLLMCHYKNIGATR
The settings on record: boosting of the acetylcholine effect at an EC20 acetylcholine concentration; for Efficiency: M2-GIRK1/4 activation test; for Emax: read-out: Efficiency, M2-GIRK1/4 activation test.

34 molecules from US20190367516A1 (Bayer Pharma Aktiengesellschaft, priority 2015, published 2019) can be followed below.

For the molecule `O=C(NC(c1c(F)cccc1F)C(F)(F)F)c1cn(-c2ccc(F)cc2F)c2nc(N3CCCC(O)C3=O)ccc2c1=O` (single isomer, unassigned) [Example 251, 1-(2,4-Difluorophenyl)-N-[1-(2,6-difluorophenyl)-2,2,2-trifluoroethyl]-7-[3-hydroxy-2-oxopiperidin-1-yl]-4-oxo-1,4-dihydro-1,8-naphthyridine-3-carboxamide], the Efficiency stood at 100.0%.
`O=C(NC(c1c(F)cccc1F)C(F)(F)F)c1cn(-c2ccc(F)cc2F)c2nc(N3CCC(O)CC3=O)ccc2c1=O` (single isomer, unassigned) [Example 253, 1-(2,4-Difluorophenyl)-N-[1-(2,6-difluorophenyl)-2,2,2-trifluoroethyl]-7-[4-hydroxy-2-oxopiperidin-1-yl]-4-oxo-1,4-dihydro-1,8-naphthyridine-3-carboxamide]: the Emax amounted to 100%.
The molecule `O=C(NC(c1c(F)cccc1F)C(F)(F)F)c1cn(-c2ccc(F)cc2F)c2nc(N3CCC(O)CC3=O)ccc2c1=O` (single isomer, unassigned) [Example 254, 1-(2,4-Difluorophenyl)-N-[1-(2,6-difluorophenyl)-2,2,2-trifluoroethyl]-7-[4-hydroxy-2-oxopiperidin-1-yl]-4-oxo-1,4-dihydro-1,8-naphthyridine-3-carboxamide] returned an Efficiency of 94.0%.
On the same count and under the same terms, the figure for `O=C(NC(c1c(F)cccc1F)C(F)(F)F)c1cn(-c2ccc(F)cc2F)c2nc(N3CCC(O)CC3=O)ccc2c1=O` (single isomer, unassigned) [Example 255, 1-(2,4-Difluorophenyl)-N-[1-(2,6-difluorophenyl)-2,2,2-trifluoroethyl]-7-[4-hydroxy-2-oxopiperidin-1-yl]-4-oxo-1,4-dihydro-1,8-naphthyridine-3-carboxamide] is 96.7%.
Same read-out and setting: the figure for `O=C(NC(c1c(F)cccc1F)C(F)(F)F)c1cn(-c2ccc(F)cc2F)c2nc(N3CCC(O)CC3=O)ccc2c1=O` (single isomer, unassigned) [Example 256, 1-(2,4-Difluorophenyl)-N-[1-(2,6-difluorophenyl)-2,2,2-trifluoroethyl]-7-[4-hydroxy-2-oxopiperidin-1-yl]-4-oxo-1,4-dihydro-1,8-naphthyridine-3-carboxamide] is 95.0%.
The same measure, in the same setting: then `CC[C@@H](NC(=O)c1cn(-c2ccc(F)cc2F)c2nc(N3CCOC(C(F)F)C3)ccc2c1=O)C(F)(F)F` (single isomer, unassigned) [Example 264], with 76.3%; and `CC[C@@H](NC(=O)c1cn(-c2ccc(F)cc2F)c2nc(N3CCOC(C(F)F)C3)ccc2c1=O)C(F)(F)F` (single isomer, unassigned) [Example 265], with 100.0%.
Regarding `CC[C@@H](NC(=O)c1cn(-c2ccccc2C(F)(F)F)c2nc(N3C[C@@H](O)CC3=O)ccc2c1=O)C(F)(F)F` (single isomer, unassigned) [Example 269], the Emax turned out to be 98%.
As to `CC[C@@H](NC(=O)c1cn(-c2ccccc2C(F)(F)F)c2nc(N3C[C@@H](O)CC3=O)ccc2c1=O)C(F)(F)F` (single isomer, unassigned) [Example 270], the Efficiency was 94.0%.
As for `CC[C@@H](NC(=O)c1cn(-c2c(F)cccc2F)c2nc(N3CCC(C)(O)C3)ccc2c1=O)C(F)(F)F` (single isomer, unassigned) [Example 277], the Emax turned out to be 98.5%.
On the same count and under the same terms, then `CC[C@@H](NC(=O)c1cn(-c2c(F)cc(F)cc2F)c2nc(N3CCC(O)C3=O)ccc2c1=O)C(F)(F)F` (single isomer, unassigned) [Example 281], with 100%.
As for `O=C(N[C@@H](C1CC1)C(F)(F)F)c1cn(-c2ccc(F)cc2F)c2nc(N3C[C@@H](O)CC3=O)ccc2c1=O` (single isomer, unassigned) [Example 284], the Emax came to 97.8%.
On the same count and under the same terms, then `O=C(NC(c1ccccc1Cl)C(F)(F)F)c1cn(-c2ccccc2F)c2nc(N3CCC(O)C3=O)ccc2c1=O` (single isomer, unassigned) [Example 288], with 84%.
`O=C(NC(c1ccccc1Cl)C(F)(F)F)c1cn(-c2ccccc2F)c2nc(N3CCC(O)C3=O)ccc2c1=O` (single isomer, unassigned) [Example 290] showed an Efficiency of 100.0%.
The same measure, in the same setting: the figure for `O=C(NC(c1ccccc1Cl)C(F)(F)F)c1cn(-c2ccccc2F)c2nc(N3CCC(O)C3=O)ccc2c1=O` (single isomer, unassigned) [Example 291] is 99.5%.
For `CC[C@@H](NC(=O)c1cn(-c2c(F)cccc2F)c2nc(N3CCC(O)C3=O)ccc2c1=O)C(F)(F)F` (single isomer, unassigned) [Example 293], the Emax was 88.5%.
The molecule `CC[C@@H](NC(=O)c1cn(-c2c(F)cccc2F)c2nc(N3CCC(O)C3=O)ccc2c1=O)C(F)(F)F` (single isomer, unassigned) [Example 294] returned an Efficiency of 92.5%.
On to `O=C(N[C@H](C1CC1)C(F)(F)F)c1cn(-c2c(F)cccc2F)c2nc(N3C[C@@H](O)CC3=O)ccc2c1=O` (single isomer, unassigned) [Example 296], for which the Emax turned out to be 97.4%.
The same measure, in the same setting: then `O=C(N[C@@H](C1CC1)C(F)(F)F)c1cn(-c2c(F)cccc2F)c2nc(N3C[C@@H](O)CC3=O)ccc2c1=O` (single isomer, unassigned) [Example 297], with 97.3%.
Still for that read-out and setting: the figure for `CC[C@@H](NC(=O)c1cn(-c2ccc(F)cc2F)c2nc(N3CC(C)CC3=O)ccc2c1=O)C(F)(F)F` (single isomer, unassigned) [Example 302] is 96%.
For the molecule `CC[C@@H](NC(=O)c1cn(-c2ccc(F)cc2F)c2nc(N3CC(C)CC3=O)ccc2c1=O)C(F)(F)F` (single isomer, unassigned) [Example 303], the Efficiency is reported as 95.0%.
As for `CC[C@@H](NC(=O)c1cn(-c2c(F)cccc2F)c2nc(N3CC4CC4(O)C3)ccc2c1=O)C(F)(F)F` (single isomer, unassigned) [Example 305], the Emax was 98.5%.
For `CC[C@@H](NC(=O)c1cn(-c2c(F)cccc2F)c2nc(N3CC4CC4(O)C3)ccc2c1=O)C(F)(F)F` (single isomer, unassigned) [Example 306], the Efficiency came out at 98.5%.
`C[C@H](NC(=O)c1cn(-c2c(F)cccc2F)c2nc(N3CC4CC4(O)C3)ccc2c1=O)C(F)(F)F` (single isomer, unassigned) [Example 312]: the Emax came out at 97%.
With `C[C@H](NC(=O)c1cn(-c2c(F)cccc2F)c2nc(N3CC4CC4(O)C3)ccc2c1=O)C(F)(F)F` (single isomer, unassigned) [Example 313], the Efficiency is listed as 80.0%.
On to `CC[C@@H](NC(=O)c1cn(-c2ccc(F)cc2F)c2nc(N3CC4CC4(O)C3)ccc2c1=O)C(F)(F)F` (single isomer, unassigned) [Example 314], for which the Emax worked out at 100%.
Consider `CC[C@@H](NC(=O)c1cn(-c2ccc(F)cc2F)c2nc(N3CC4CC4(O)C3)ccc2c1=O)C(F)(F)F` (single isomer, unassigned) [Example 315], for which the Efficiency is 96.3%.
Take `C[C@H](NC(=O)c1cn(-c2c(F)cc(F)cc2F)c2nc(N3CC4CC4(O)C3)ccc2c1=O)C(F)(F)F` (single isomer, unassigned) [Example 317]: the Emax was 88%.
Take `C[C@H](NC(=O)c1cn(-c2c(F)cc(F)cc2F)c2nc(N3CC4CC4(O)C3)ccc2c1=O)C(F)(F)F` (single isomer, unassigned) [Example 318]: the Efficiency was determined as 86.0%.
`CC(C)(CC(F)(F)F)NC(=O)c1cn(-c2c(F)cc(F)cc2Cl)c2nc(N3C[C@@H](O)[C@H](O)C3)ccc2c1=O` (single isomer, unassigned) [Example 392]: the Emax was found to be 100%.
Take `CC(C)(CC(F)(F)F)NC(=O)c1cn(-c2c(F)cc(F)cc2Cl)c2nc(N3C[C@@H](O)[C@H](O)C3)ccc2c1=O` (single isomer, unassigned) [Example 393]: the Efficiency worked out at 100.0%.
On to `CCC(NC(=O)c1cn(-c2ccc(F)cc2F)c2nc(N3CCN(C(=O)OC)CC3)ccc2c1=O)C(F)(F)F` (single isomer, unassigned; enantiomer a) [Example 24, ent-Methyl 4-{8-(2,4-difluorophenyl)-5-oxo-6-[(1,1,1-trifluorobutan-2-yl)carbamoyl]-5,8-dihydro-1,8-naphthyridin-2-yl}piperazine-1-carboxylate (Enantiomer A)], for which the Emax was determined as 100%.
Take `CCC(NC(=O)c1cn(-c2ccc(F)cc2F)c2nc(N3CCN(C(=O)OC)CC3)ccc2c1=O)C(F)(F)F` (single isomer, unassigned; enantiomer b) [Example 25, ent-Methyl 4-{8-(2,4-difluorophenyl)-5-oxo-6-[(1,1,1-trifluorobutan-2-yl)carbamoyl]-5,8-dihydro-1,8-naphthyridin-2-yl}piperazine-1-carboxylate (Enantiomer B)]: the Efficiency turned out to be 100.0%.
With `CN(C)c1ccc2c(=O)c(C(=O)NC(C(C)(C)C)C(F)(F)F)cn(-c3ccc(F)cc3F)c2n1` (stereo in doubt) [Example 132, 1-(2,4-Difluorophenyl)-7-(dimethylamino)-4-oxo-N-[(2S)-1,1,1-trifluoro-3,3-dimethylbutan-2-yl]-1,4-dihydro-1,8-naphthyridine-3-carboxamide], the Emax was determined as 98%.
